The densities may have been worked out from excess volumes.
Experiment: xn = mol fraction of the nth substance listed
Details: 100 kPa

O + CCCn1cc[n+](C)c1.[Br-]
x2 = 0
Details	mass density [kg/m3]
313.15 K	992.5
323.15 K	988.2

CC[n+]1ccn(C)c1.[Br-] + O
mass density [kg/m3]
Details	x1 = 0.049	x1 = 0.0997	x1 = 0.1466	x1 = 0.1978	x1 = 0.2501	x1 = 0.3881	x1 = 0.543
303.15 K	–	1181.1	1228.6	–	1293.5	1338.4	1368.3
313.15 K	1102.8	1175	1221.9	1257.2	1286.5	1331.5	1361.3
323.15 K	1097.2	1168.6	1215.2	1250.2	1279.4	1324.4	1354.3
333.15 K	–	1161.9	1208.2	1243.1	1272.2	1317.3	1347.2
343.15 K	1083.3	1154.9	1201	1235.8	1264.9	1310.1	1340.2

O + CCCC[n+]1ccn(C)c1.[Br-]
x2 = 0
Details	mass density [kg/m3]
313.15 K	992.5
323.15 K	988.2
333.15 K	983.6
343.15 K	978.2

CCCn1cc[n+](C)c1.[Br-] + O
mass density [kg/m3]
Details	x1 = 0.0497	x1 = 0.0992	x1 = 0.149	x1 = 0.1984	x1 = 0.4005	x1 = 0.5756	x1 = 0.749
303.15 K	1103	1167.3	–	1238.6	–	1322	1334.1
313.15 K	1097.4	1160.7	–	1231.4	1292	1315	1327.2
323.15 K	–	1153.8	1194.1	1224	1284.9	1307.9	–
333.15 K	1085.1	1146.8	1186.7	1216.6	1277.7	1300.9	1313.1
343.15 K	1079.4	1139.5	1179.6	1209	1270.6	1294	1306.1

O + CC[n+]1ccn(C)c1.[Br-]
x2 = 0
Details	mass density [kg/m3]
313.15 K	992.5
333.15 K	983.6

CCCC[n+]1ccn(C)c1.[Br-] + O
mass density [kg/m3]
Details	x1 = 0.05	x1 = 0.0992	x1 = 0.1481	x1 = 0.1979	x1 = 0.2517	x1 = 0.3882
303.15 K	–	–	1190.9	1215.5	1233.1	–
313.15 K	–	1148.9	1183.7	1208.2	1225.8	–
323.15 K	1088.3	1141.8	1176.3	1200.9	1218.5	–
333.15 K	–	–	1168.8	–	–	–
343.15 K	1074.5	1126.9	1161.2	1185.8	1203.6	1235.2
